Laboratory results as given in article PMC11513070.
Changes are numbered by the printed parent chain. These are yes or no findings as the source states them, for the method shown. In cells and extracts the contact can be indirect. Some entries that bind do so weakly or less than the wild type. Tags and fused reporters may be left off the sequences shown.

Legend:
[1] = target: T1, SPP-3xFLAG (murine signal peptide peptidase) (mouse) (UniProt Q9D8V0); assay: co-IP; 3xFLAG-tagged SPP/SPPL protease precipitated with anti-FLAG beads from lysates of transiently transfected HEK293T cells; western blot for endogenous calnexin
T1 sequence (chain, N-glycosylated at N10 and N20): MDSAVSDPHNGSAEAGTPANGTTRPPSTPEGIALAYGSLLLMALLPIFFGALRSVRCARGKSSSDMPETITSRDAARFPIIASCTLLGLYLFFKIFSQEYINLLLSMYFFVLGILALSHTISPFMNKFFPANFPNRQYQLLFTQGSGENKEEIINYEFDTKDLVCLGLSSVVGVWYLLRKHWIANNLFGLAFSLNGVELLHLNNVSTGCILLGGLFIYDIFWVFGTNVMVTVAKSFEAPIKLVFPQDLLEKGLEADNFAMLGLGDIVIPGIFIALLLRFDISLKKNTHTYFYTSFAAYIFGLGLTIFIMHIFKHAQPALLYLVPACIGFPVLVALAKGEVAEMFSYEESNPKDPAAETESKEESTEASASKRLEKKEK

SPPL2c-3xFLAG (mouse) = target: T2, SPPL2c-3xFLAG (mouse) (UniProt A2A6C4); assay: as above
T2 sequence (chain, N-glycosylated at N106): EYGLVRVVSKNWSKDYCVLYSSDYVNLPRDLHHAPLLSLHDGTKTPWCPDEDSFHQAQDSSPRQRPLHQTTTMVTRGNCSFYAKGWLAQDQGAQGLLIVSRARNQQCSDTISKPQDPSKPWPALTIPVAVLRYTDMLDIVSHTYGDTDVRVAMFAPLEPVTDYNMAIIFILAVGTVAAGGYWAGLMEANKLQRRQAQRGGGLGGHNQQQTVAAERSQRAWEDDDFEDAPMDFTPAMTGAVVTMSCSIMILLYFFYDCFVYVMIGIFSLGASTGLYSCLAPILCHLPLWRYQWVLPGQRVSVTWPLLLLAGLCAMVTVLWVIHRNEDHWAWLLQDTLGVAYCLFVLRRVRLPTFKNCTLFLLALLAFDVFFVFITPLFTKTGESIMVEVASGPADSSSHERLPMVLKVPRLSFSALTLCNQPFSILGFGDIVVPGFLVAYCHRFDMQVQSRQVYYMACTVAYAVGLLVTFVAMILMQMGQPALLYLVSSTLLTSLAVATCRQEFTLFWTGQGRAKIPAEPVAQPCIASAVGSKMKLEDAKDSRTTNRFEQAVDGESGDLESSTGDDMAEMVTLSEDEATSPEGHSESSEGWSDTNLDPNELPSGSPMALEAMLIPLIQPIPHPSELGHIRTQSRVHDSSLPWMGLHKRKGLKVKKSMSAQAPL

SPPL2b-3xFLAG = target: T3, SPPL2b-3xFLAG (UniProt Q3TD49); assay: as above
T3 sequence (chain, N-glycosylated in the N-terminus (sites not printed)): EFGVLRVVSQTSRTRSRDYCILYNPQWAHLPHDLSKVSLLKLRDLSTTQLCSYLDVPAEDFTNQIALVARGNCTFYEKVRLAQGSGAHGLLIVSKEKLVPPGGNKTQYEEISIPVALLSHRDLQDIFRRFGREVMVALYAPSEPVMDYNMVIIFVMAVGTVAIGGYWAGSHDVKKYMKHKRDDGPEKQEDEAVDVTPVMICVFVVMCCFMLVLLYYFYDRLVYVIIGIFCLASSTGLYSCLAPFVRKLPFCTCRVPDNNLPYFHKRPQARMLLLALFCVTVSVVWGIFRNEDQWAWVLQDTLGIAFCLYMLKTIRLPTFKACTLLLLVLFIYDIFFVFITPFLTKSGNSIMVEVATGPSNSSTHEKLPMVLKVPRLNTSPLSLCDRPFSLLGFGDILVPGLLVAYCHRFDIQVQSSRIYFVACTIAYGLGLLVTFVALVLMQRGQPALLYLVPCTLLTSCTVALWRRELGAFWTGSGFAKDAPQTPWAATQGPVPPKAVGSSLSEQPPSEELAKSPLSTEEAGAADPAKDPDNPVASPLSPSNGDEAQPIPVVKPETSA

[2] = target: T4, SPPL2c N106A-myc (murine isoform A, glycosylation-deficient) (mouse) (UniProt A2A6C4); assay: co-IP; myc-tagged protease variant precipitated with anti-SPPL2c (C-terminus or 3B epitope) or anti-SPP sepharose beads from lysates (0.5% DDM) of transiently transfected HEK293T cells, overnight at 4 °C; western blot for endogenous calnexin
T4 sequence: T2 sequence (chain, N-glycosylated at N106) with N78A

[3] = target: T5, SPPL2c-myc (murine SPPL2c isoform A, wild type) (mouse) (UniProt A2A6C4); assay: as above
T5 sequence (chain, N-glycosylated at N106): T2 sequence (chain, N-glycosylated at N106)

[4] = target: T6, SPP-myc (murine, wild type) (mouse) (UniProt Q9D8V0); assay: as above
T6 sequence (chain, N-glycosylated at N10 and N20): T1 sequence (chain, N-glycosylated at N10 and N20)

B1: calnexin, endogenous in HEK293T cells (protein, UniProt P27824 21-592)
chain: HDGHDDDVIDIEDDLDDVIEEVEDSKPDTTAPPSSPKVTYKAPVPTGEVYFADSFDRGTLSGWILSKAKKDDTDDEIAKYDGKWEVEEMKESKLPGDKGLVLMSRAKHHAISAKLNKPFLFDTKPLIVQYEVNFQNGIECGGAYVKLLSKTPELNLDQFHDKTPYTIMFGPDKCGEDYKLHFIFRHKNPKTGIYEEKHAKRPDADLKTYFTDKKTHLYTLILNPDNSFEILVDQSVVNSGNLLNDMTPPVNPSREIEDPEDRKPEDWDERPKIPDPEAVKPDDWDEDAPAKIPDEEATKPEGWLDDEPEYVPDPDAEKPEDWDEDMDGEWEAPQIANPRCESAPGCGVWQRPVIDNPNYKGKWKPPMIDNPSYQGIWKPRKIPNPDFFEDLEPFRMTPFSAIGLELWSMTSDIFFDNFIICADRRIVDDWANDGWGLKKAADGAAEPGVVGQMIEAAEERPWLWVVYILTVALPVFLVILFCCSGKKQTSGMEYKKTDAPQPDVKEEEEEKEEEKDKGDEEEEGEEKLEEKQKSDAEEDGGTVSQEEEDRKPKAEEDEILNRSPRNRKPRRE
binding [1]: binds
binding (SPPL2c-3xFLAG (mouse)): binds
binding (SPPL2b-3xFLAG): binds
binding [2]: no binding
binding [3]: binds
binding [4]: binds
